# Assay results published in the supplement of paper PMC7125110.
# ± gives the standard error. Variants at the floor of the assay are shown more often than the library holds them.
# B1: glmS ribozyme (parent)
# chain: AUAAAAGCGCCAGAACUACAGAAAUGUAGUUGACGAGGAGGAGGUUUAUCGAAUUUUCGGCGGAUGCCUCCAAA
# Variants of: B1
# Assay: self-cleavage kobs at 2500 uM GlcN6P; higher = faster cleavage; RNA array
# Conditions: with glucosamine-6-phosphate
# How it was run: (§1)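 Sequenced MiSeq chips were the platform: E. coli RNA polymerase transcribed barcoded ribozyme variants on them in situ, and a hybridised Cy3 probe tracked these at 37 °C. After glucosamine-6-phosphate (40 μM to 10 mM) in HEPES/KCl/Mg(OAc)2 buffer was flowed in, tiles were imaged over ~14 h. Signals normalised to baseline and to non-cleaving reference variants were reduced to per-tile medians and fit to one- or two-exponential decays to obtain kobs. kcat and KM were derived through weighted Michaelis–Menten fits across concentrations.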
row,Variant,self-cleavage kobs at 2500 uM GlcN6P [s⁻¹]
1,A14G C34A U55C G59C C61A,< 1e-05
2,A14G G29C A42U,< 1e-05
3,A14G G32A C34G A53U,< 1e-05
4,A14G G35U U49A,< 1e-05
5,A14G G37A G38A A52C A53C C70A C71U,< 1e-05
6,A14U C16U U47G C58U G60A U69G,0.000102 ± 2.6e-05
7,A14U C34A G51C,< 1e-05
8,A14U G37U G41A G51A C70A,< 1e-05
9,A14U U47C G60A G62C,< 1e-05
10,A15C A36U A42U,< 1e-05
11,A15C G43U C68U U69A,< 1e-05
12,A15C U30A U31C C71G,0.000148 ± 5.9e-05
13,A15G A48C G59A C68U C70G,< 1e-05
14,A15G G35C A39C U46A,< 1e-05
15,A15G U31A A53G,0.01 ± 0.0031
16,A15U A33C U47A A53U C58G,< 1e-05
17,A15U A33U G59U,< 1e-05
18,A15U A36G A64U,< 1e-05
19,A15U A39G G51A,< 1e-05
20,A15U C16G G59C,< 1e-05
21,A15U C58G C68U,6.36e-05 ± 2.9e-05
22,C16A A36G G41A,< 1e-05
23,C16A A36U G37C C58U,< 1e-05
24,C16A U31C C70A,< 1e-05
25,C16G G32U U49A,< 1e-05
26,C16G G37U A42U A52U,< 1e-05

row,Variant,self-cleavage kobs at 2500 uM GlcN6P [s⁻¹]
1,C16G U30C G32C C58G,5.09e-05 ± 2.2e-05
2,C16G U49C A64G,< 1e-05
3,C16G U65A C71U,0.000341 ± 8.1e-05
4,C16U A36G G43A,< 1e-05
5,C16U A36U G41A U46C G51C,< 1e-05
6,C16U G40U G63U,< 1e-05
7,C16U G41A C67U,< 1e-05
8,C16U G51U C61A,< 1e-05
9,C16U U57A C70G,5.1e-05 ± 2.1e-05
10,C19A G29A C34U U47C,< 1e-05
11,G29A U30C A42G G62A,< 1e-05
12,G29C A36C U46G G63C,< 1e-05
13,G29C G44C C50U G66U,< 1e-05
14,G29C U31G C71A,< 1e-05
15,G29U A42C C50G,< 1e-05
16,G29U G41C C58A,< 1e-05
17,G29U U30A G35C A36C G41C U45C,< 1e-05
18,U30A A39G G41C G44A G60C U65G,< 1e-05
19,U30A A39G U69G,5.54e-05 ± 2.2e-05
20,U30A A42U G62U,< 1e-05
21,U30A G43U C61A C71U,< 1e-05
22,U31A A33G A36C U46C,< 1e-05
23,U31A A33U C71G,< 1e-05
24,U31A A36G C71A,< 1e-05
25,U31A A36G G63A A64U C71U,< 1e-05
26,U31C A42C U47C C67U,< 1e-05

row,Variant,self-cleavage kobs at 2500 uM GlcN6P [s⁻¹]
1,U31G C34A A64G U69A C70U,< 1e-05
2,U31G C58A C67G,6.38e-05 ± 2e-05
3,G32A A33G G63U,< 1e-05
4,G32A A36G U54C,< 1e-05
5,G32A G44A C71A,< 1e-05
6,G32A G51U U54A,< 1e-05
7,G32C G35U U54G,< 1e-05
8,G32C U47A,2.87e-05 ± 1.3e-05
9,G32U C50U,< 1e-05
10,G32U G40C U49A G63C,< 1e-05
11,G32U G44A G59U,< 1e-05
12,A33C G37U G63U,< 1e-05
13,A33C G43C C61A A64U C70U,< 1e-05
14,A33G A42U U56C,< 1e-05
15,A33U C34A G44U A52C,< 1e-05
16,A33U G44C U56A U69C,< 1e-05
17,C34A A48C G51C,< 1e-05
18,C34A G35A U47G A48G,< 1e-05
19,C34A G35C A42U C70A,< 1e-05
20,C34A G35U G38A A48C C50A C68A,< 1e-05
21,C34A U49C G59A G63C,< 1e-05
22,C34A U49G A53G C68U,< 1e-05
23,C34G G35C G66A,< 1e-05
24,C34G G38A A42U G44C C67U,< 1e-05
25,C34G G59A,< 1e-05
26,C34G U49G,< 1e-05

row,Variant,self-cleavage kobs at 2500 uM GlcN6P [s⁻¹]
1,C34U U49A,< 1e-05
2,G35A A39U U49C A52U,< 1e-05
3,G35A G44U,< 1e-05
4,G35A U54A U56C G60C,< 1e-05
5,G35C A42U U55A C58G,< 1e-05
6,G35C G41C U46C,< 1e-05
7,G35C G44U G63U G66U C67G,< 1e-05
8,G35C U56A C68U,< 1e-05
9,G35U G38C G44U G60A,< 1e-05
10,A36C G59U G60U C70G,< 1e-05
11,A36U G44C U69A,< 1e-05
12,A36U U45A U46A U69A,< 1e-05
13,A36U U57G A64G C67U,< 1e-05
14,G37A G38C U56G C70G,6.06e-05 ± 1.5e-05
15,G37A G40A G59A,< 1e-05
16,G37A G41A C61U,< 1e-05
17,G37A G43U C61A G62C,< 1e-05
18,G37A G44U G60C A64U G66U C71G,< 1e-05
19,G37C A42U G51A,< 1e-05
20,G37C A48U U65C,< 1e-05
21,G38C A48U U57C C67U,< 1e-05
22,G38C C58U G66A,< 1e-05
23,G38C G43A U46C U54A C58A,< 1e-05
24,G38U C50G,6.94e-05 ± 1.4e-05
25,G38U G43A U45G,< 1e-05
26,G38U U45C U57A,< 1e-05

row,Variant,self-cleavage kobs at 2500 uM GlcN6P [s⁻¹]
1,A39C G51A,< 1e-05
2,A39U A52C C71A,< 1e-05
3,A39U C50G A52G,< 1e-05
4,A39U G66A C68G,4.5e-05 ± 2e-05
5,G40A A42C U57C C67U,< 1e-05
6,G40C G60C C67A,< 1e-05
7,G40U U49G G59U,< 1e-05
8,G41A U45A C71U,9.76e-05 ± 2.1e-05
9,G41A U47G C70G,9.9e-05 ± 3.6e-05
10,G41C A42U C67U,< 1e-05
11,G41C U45A U56G C67G C70G,0.00118 ± 0.00023
12,G41U A52G C68G,< 1e-05
13,A42C U45C A48U C61A,< 1e-05
14,A42U A53U G59A,< 1e-05
15,A42U U46A,7.32e-05 ± 1.7e-05
16,A42U U47G U69A,0.0115 ± 0.0021
17,A42U U55C G59C C67A,< 1e-05
18,G43C A48G C67G,< 1e-05
19,G43U C61A C70U,< 1e-05
20,G43U G44A C50U C61G,< 1e-05
21,G43U U54A C58U G59C C61G G62C A64G U65A G66U,< 1e-05
22,G44U A53C G63C,< 1e-05
23,G44U C68A C70A,< 1e-05
24,G44U U45G C70U,0.000791 ± 0.00023
25,U46A C67G C68U,0.000113 ± 5.1e-05
26,U46G G59U A64U,< 1e-05

row,Variant,self-cleavage kobs at 2500 uM GlcN6P [s⁻¹]
1,U47G A52G G59C,< 1e-05
2,A48C G60U G66C,< 1e-05
3,A48G G60C G63U,< 1e-05
4,A48U G51C C58A,< 1e-05
5,A48U U55A U56C,3.8e-05 ± 1.3e-05
6,U49A U65G C70U,< 1e-05
7,U49C G60U C70U,< 1e-05
8,C50G U56G G59U,8.66e-05 ± 3.9e-05
9,C50U G60U A64C C70A,< 1e-05
10,G51C U55C U56C,< 1e-05
11,A52C U54G G63A,< 1e-05
12,A52C U56G A64G,< 1e-05
13,A52U G60C C68U,< 1e-05
14,A53G C61G G62A,< 1e-05
15,U54A G60C G63A,< 1e-05
16,U56G G60C C68U,< 1e-05
17,U56G G63U C71U,< 1e-05
18,U56G G66C C71U,0.000269 ± 5.5e-05
19,U57C C68U,3.96e-05 ± 1.4e-05
20,G62U U65G C67U,< 1e-05
21,U69A C70A,4.37e-05 ± 1.1e-05

# Variants of: B1
# Assay: self-cleavage kobs at 10000 uM GlcN6P; higher = faster cleavage; RNA array
# Conditions: with glucosamine-6-phosphate
# How it was run: as §1
row,Variant,self-cleavage kobs at 10000 uM GlcN6P [s⁻¹]
1,A14G G35U U49A,< 1e-05
2,C16G U65A C71U,0.000346 ± 8.7e-05
3,U31G C34A A64G U69A C70U,< 1e-05
4,G32A A36G U54C,< 1e-05
5,G32U C50U,< 1e-05
6,A33C G43C C61A A64U C70U,< 1e-05
7,A33U G44C U56A U69C,< 1e-05
8,C34G G59A,< 1e-05
9,C34G U49G,< 1e-05
10,C34U U49A,< 1e-05
11,G35A G44U,< 1e-05
12,A36U U57G A64G C67U,< 1e-05
13,G38C G43A U46C U54A C58A,< 1e-05
14,A39C G51A,< 1e-05
15,G41C A42U C67U,< 1e-05
16,A42U U46A,0.000112 ± 1.7e-05
17,G43C A48G C67G,< 1e-05
18,U46G G59U A64U,< 1e-05
19,A48U U55A U56C,4.04e-05 ± 1e-05
20,U56G G63U C71U,< 1e-05
21,U57C C68U,5.36e-05 ± 6e-06
22,U69A C70A,3.27e-05 ± 9.4e-06
23,A5U A39C U65G C68U,4.87e-05 ± 1.6e-05
24,A6C G9U C10U G38U C67G,< 1e-05
25,A6C G29A C34U G43U G44U,< 1e-05
26,A6G A15U U31G G35C G66A,< 1e-05
27,A6U C10G G62U C67G C71G,2.87e-05 ± 1.4e-05
28,G7A A39C C58G,< 1e-05
